# The supplement of paper PMC3334620
# Over roughly 33,000 sequences, “E-score (-0.5 to 0.5)” has its median near -0.017; the highest 2% begin near 0.3. The list shows a part of the results.
# Biological target: T1, Sut1 (UniProt P53032)
# T1 sequence: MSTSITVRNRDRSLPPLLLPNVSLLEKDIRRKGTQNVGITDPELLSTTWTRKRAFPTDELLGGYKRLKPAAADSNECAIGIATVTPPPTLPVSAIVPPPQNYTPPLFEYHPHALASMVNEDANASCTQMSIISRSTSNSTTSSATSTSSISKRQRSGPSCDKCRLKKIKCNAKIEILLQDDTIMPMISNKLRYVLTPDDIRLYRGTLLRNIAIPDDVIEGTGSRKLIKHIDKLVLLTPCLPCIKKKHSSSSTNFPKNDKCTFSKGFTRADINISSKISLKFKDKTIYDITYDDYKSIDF
# Test: PBM E-score (8-mer binding enrichment) (E-score (-0.5 to 0.5)); higher = stronger / more preferred TF binding; most listed sequences are background and not binding sites
# Conditions: protein concentration: 200 nM; construct: GST-full length
# Outline: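 Using PURExpress in vitro transcription/translation, GST-tagged yeast transcription factors were made in full-length or DNA-binding-domain form. These were applied at about 100-200 nM to double-stranded universal all-10-mer Agilent arrays, and bound protein was detected with fluorescent anti-GST. Scans were normalised with masliner before the Universal PBM Analysis Suite assigned E-scores to ungapped eight-base words pooled with their reverse complements.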
row,Sequence,PBM E-score
1,CCGCAGGA,-0.245
2,CGAGCCTC,-0.129
3,AAGAAAAA,0.319
4,ATGACCTG,-0.085
5,GCGCTGAA,-0.106
6,ATTACTGA,0.037
7,CCTCAATA,-0.0482
8,CTACTGAG,0.028
9,TCCAAAGA,-0.00733
10,CGTTGCGA,-0.0552
11,ACGCACCG,-0.083
12,GGACTACC,0.207
13,ACGCCCAC,-0.244
14,AAGATGTG,-0.0532
15,TTAGACAA,0.149
16,GGCGTCTA,-0.125
17,GGTTGTGA,0.0966
18,TATCGTGA,0.0374
19,AAACACCT,-0.0807
20,AGTTCCAT,0.0714
21,AGGTGTAC,-0.124
22,GAGTACCA,0.17
23,CCTGCTAG,-0.22
24,AAGGATGC,-0.199

row,Sequence,PBM E-score
1,AGGCATTC,-0.125
2,ACATCTCG,0.0654
3,ATGCGGTC,0.0607
4,AATGAGTG,0.0492
5,CTGATCGC,-0.248
6,CCATGCGA,0.114
7,ATCACTAA,0.0894
8,CCCGCCCC,0.0349
9,AAGAATCC,0.00906
10,ACTATGCA,0.0796
11,TAGCTTAA,-0.00342
12,GAAGCGCC,0.0753
13,TAATATAA,0.306
14,GACGCAAA,-0.0155
15,GCTGACTA,-0.057
16,ATGTCTCG,-0.0584
17,AGAACCTA,-0.0856
18,CATTTGCA,0.0495
19,AAGTTGAA,0.0627
20,CCATACTC,-0.246
21,ACCATCTA,-0.00802
22,GCCTATGA,-0.267
23,AGTTCAAG,0.147
24,AATCCCTC,-0.132

row,Sequence,PBM E-score
1,AGCGCGCA,0.00859
2,CGAGCTTC,0.165
3,AATTGAAC,0.0105
4,GAGCCCCA,-0.14
5,AGCGGCAA,-0.215
6,ACTATAGA,0.168
7,ACCCCTGG,-0.332
8,CCATACAG,-0.18
9,GTCACGCA,-0.0816
10,CACCACTC,0.0323
11,ACTCACTC,0.135
12,CAGCAAGC,-0.298
13,ACCACCGG,0.0681
14,AATCCAAT,0.0377
15,GCCATAAA,-0.00966
16,GGTAAACC,-0.083
17,GTTATAAC,-0.0927
18,ATAACTCG,0.149
19,CCCAAGAA,0.111
20,GATGGATA,-0.0501
21,ACCTTACT,0.163
22,TAAGGCGA,-0.0658
23,AACAGAGT,-0.014
24,GTACGTAA,0.0496

row,Sequence,PBM E-score
1,AATGCGAA,0.0115
2,AGTCTCTC,-0.17
3,GTCTCGAA,-0.159
4,AAACAATA,0.258
5,TATCTTGA,0.16
6,CAGCAAAG,-0.0349
7,ATTGGCAG,-0.13
8,ACGCTGCC,-0.224
9,CAAACACG,-0.0307
10,GACTAGAC,-0.142
11,GCCGTTCC,-0.134
12,TGCGCTAA,0.00494
13,GTTACGAA,0.171
14,ACGTGCAA,-0.143
15,GAAACCAC,0.0155
16,CAGCCCGC,-0.233
17,AAATTCTT,0.0691
18,GGCTCCTA,-0.279
19,TACAAGGA,0.116
20,CTTCACCC,0.139
21,CAGGGGAC,-0.219
22,CGATGGCG,-0.0469
